We go through 1 molecule from PMC2867326 (Oncogene, 2009).

This test addresses importin-β (human (endogenous in A549, KB-CP20, …, UniProt Q14974)). Briefly: co-IP.
Sequence of UniProt Q14974 (Q14974 whole entry): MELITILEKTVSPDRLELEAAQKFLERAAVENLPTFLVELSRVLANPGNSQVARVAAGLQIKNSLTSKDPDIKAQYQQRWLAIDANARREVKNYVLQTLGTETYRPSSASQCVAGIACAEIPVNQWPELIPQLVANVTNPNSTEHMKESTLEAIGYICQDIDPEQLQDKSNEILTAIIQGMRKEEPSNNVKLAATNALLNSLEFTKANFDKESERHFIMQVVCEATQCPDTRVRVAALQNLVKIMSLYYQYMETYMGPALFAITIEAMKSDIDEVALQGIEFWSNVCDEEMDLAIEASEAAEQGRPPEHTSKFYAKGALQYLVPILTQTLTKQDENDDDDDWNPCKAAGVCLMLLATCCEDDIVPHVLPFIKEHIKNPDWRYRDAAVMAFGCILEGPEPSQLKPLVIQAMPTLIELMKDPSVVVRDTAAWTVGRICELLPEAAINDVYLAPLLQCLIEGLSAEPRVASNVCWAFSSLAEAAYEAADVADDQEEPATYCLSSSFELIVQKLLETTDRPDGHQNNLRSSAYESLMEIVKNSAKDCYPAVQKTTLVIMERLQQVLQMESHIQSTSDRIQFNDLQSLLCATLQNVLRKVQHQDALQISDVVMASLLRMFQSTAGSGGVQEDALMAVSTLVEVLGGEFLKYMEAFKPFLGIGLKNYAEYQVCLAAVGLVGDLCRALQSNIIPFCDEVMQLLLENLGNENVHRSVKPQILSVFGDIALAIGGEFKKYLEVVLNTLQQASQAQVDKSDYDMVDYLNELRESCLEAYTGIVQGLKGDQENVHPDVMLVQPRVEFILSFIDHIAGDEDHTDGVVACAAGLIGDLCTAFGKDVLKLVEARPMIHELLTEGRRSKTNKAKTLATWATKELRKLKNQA

B1: p53^420 (endogenous, oxaliplatin-selected KB-OX cell lines) (natural protein)
chain: not shown
For B1, the “p53 in the importin β immunoprecipitate, relative to KB-CP20” value was found to be 5%.
